Test results from ChEMBL document CHEMBL4888484, “Replenishing the malaria drug discovery pipeline: Screening and hit evaluation of the MMV Hit Generation Library 1 (HGL1) against asexual blood stage Plasmodium falciparum ,using a nano luciferase reporter read-out” (2022).
The whole screen tested about 150,000 compounds, of which about 540 (0.36%) showed an effect of 50% or more. The list shows a part of the results.

tested on: Plasmodium falciparum; experiment: Primary screen in NF54 nanoGlo assay, in single point, at 2uM, 72h; a lower Z score goes with more inhibition; assay type: functional, Erythrocyte; conditions: timepoint 72 hour

Row | SMILES | % Inhibition | Z score
1 | COC1(CNC2CC(C)c3c(C)cccc32)CCOCC1 (stereo not given) | -1% | 0.12
2 | CC(C)CC1(CNC(=O)CNC(=O)N(C)C)CCC1 | 12% | -1.68
3 | CC1CCN(C[C@H]2CCCCCN2C(=O)c2ccccc2F)CC1 | -4% | 0.63
4 | Cc1nnc(N2CCN(c3cccc(Cl)c3)CC2)c2c1nnn2Cc1ccc(F)cc1 | -2% | 0.18
5 | CCOCC(O)CN1CCC(c2ccccn2)C1 (stereo not given) | 1% | -0.2
6 | Cc1c(C(=O)Nc2cc(F)ccc2F)sc2ncnc(N3CCCC3)c12 | -14% | 1.31
7 | Cc1cnn(C2CN(Cc3nc4ccccc4c(=O)[nH]3)C2)c1 | -5% | 1.01
8 | CN(C)c1nc(NCc2ccccc2Cl)c2cnn(C)c2n1 | -2% | 0.31
9 | O=C(c1ccc(C(F)(F)F)nc1)N1CC=C(c2ccccc2)CC1 | 4% | -0.74
10 | Cc1ccccc1NC(=O)Cn1cnc2c(C(N)=O)nsc2c1=O | -20% | 2.7
11 | C#CCCC1(CCC(=O)N2CC(COC)(C3CC3)C2)N=N1 | -19% | 2.36
12 | Cc1cccn2cc(CN(CC(C)(C)O)C3CC3)nc12 | -13% | 2.62
13 | CC1CC(C(N)=O)c2ccccc2N1Cc1ccc(-n2cccn2)cc1 (stereo not given) | -10% | 1.26
14 | COc1cccc(OCCN2CC[C@H](NC(=O)c3ccccn3)[C@@H](O)C2)c1 | -2% | 0.34
15 | O=C(Nc1cccc2[nH]nnc12)N1CCC[C@@H]1CO | -10% | 1.48
16 | CCn1cc(Br)cc1C(=O)NC[C@H](C)c1nncn1C | -5% | 0.59
17 | CC1CN(C(=O)c2cccc(C(=O)O)n2)C(c2ccccc2)CO1 (stereo not given) | -3% | 0.48
18 | COc1ccc(Nc2nc(NCCCn3ccnc3)nc3[nH]ncc23)cc1 | 18% | -3.48
19 | CCN1CCN([C@H]2C(=O)c3ccccc3N2C(C)=O)CC1 | -20% | 2.67
20 | COc1ccc(NC(=O)CCc2cccc3[nH]ccc23)cc1 | -1% | 0.09
21 | Cc1nc(C2CCCCC2)sc1C(=O)N1CC[C@H](O)CC12CCC2 | -12% | 1.43
22 | COc1ccc(CNC(=O)N2CC[C@H](Oc3ccncc3Cl)C2)cc1OC | -2% | 0.41

Row | SMILES | % Inhibition | Z score
23 | COc1ccc(-n2nc(-c3ccccc3)n(CC(=O)NCCN(C)C)c2=O)cc1 | -8% | 1.06
24 | Cc1nc(-c2ccc(F)c(F)c2)sc1C(=O)N[C@H]1CCN(C(C)C)C1=O | -4% | 0.47
25 | O=C(NCc1ccncc1)[C@]1(F)CCCN(S(=O)(=O)c2ccccc2F)C1 | -8% | 1.28
26 | c1ccc(-c2ccc(OCCCCn3cncn3)cc2)cc1 | 0% | 0.03
27 | Cc1nc(-c2csc(S(=O)(=O)Nc3cccc(C(F)(F)F)c3C)c2)sc1C | -6% | 0.85
28 | Cc1c(NC(=O)N2CCCO[C@@H](CN3CCOCC3)C2)cnn1C | -21% | 2.67
29 | Cc1ccc2ncc(-c3nc(N4CCOCC4)n(C)n3)cc2c1 | -20% | 3.21
30 | COC[C@@H](O)CNCc1ccc(C)cc1Br | -7% | 0.93
31 | Cc1c(Cl)cc(NC(=O)NCCCS(C)(=O)=O)cc1Cl | -4% | 0.57
32 | Cc1ccc(N2C[C@@H](c3nc(-c4cccc(-c5csc(C6CC6)n5)c4)no3)CC2=O)cc1 | 6% | -0.72
33 | c1ccc2c(N3CCC[C@H](Cn4cncn4)C3)ncnc2c1 | -22% | 3.07
34 | CCC1(CC)CN(C(=O)c2cc(C#N)oc2C)CCS1(=O)=O | -3% | 0.43
35 | CCOc1ccc(C(=O)N[C@H]2CC[C@H](Oc3ncccn3)CC2)cn1 | 0% | 0.03
36 | CCN(Cc1ccccc1)c1ccc(NS(=O)(=O)c2ccccc2C)cc1C(=O)O | -13% | 1.23
37 | Cc1ccc(C(=O)NC2CCN(c3nnc4ccccn34)CC2)cc1N1CCCC1=O | 35% | -3.99
38 | CC(C)COC(=O)NC(C)(C)COC(=O)Nc1ccc(Cl)cc1 | 4% | -0.52
39 | C[C@@H]1OCCO[C@@H]1C(=O)N(Cc1cccnc1)c1ccc(Cl)cc1 | -3% | 0.53
40 | COc1ccccc1OCC(=O)N1CC[C@H](S(=O)(=O)C(C)(C)C)C1 | -2% | 0.42
41 | Cc1ccc([C@@]2(C)NC(=O)N(CCC3OCCO3)C2=O)c(C)c1 | -13% | 2.06
42 | CC1CN(C(=O)NC(C)C(C)c2ccccc2)CCS(=O)(=O)C1 (stereo not given) | -9% | 1.85
43 | C[C@@H]1C[C@H](O)CN(C(=O)Nc2ccccc2C(=O)N2CCCCC2)C1 | 5% | -0.82
44 | Cc1ccc2c(c1)[C@H](O)CC(C)N2C(=O)c1ccc(Br)cc1 (stereo not given in full) | 4% | -0.47

Row | SMILES | % Inhibition | Z score
45 | CCc1[nH]nc(NC(=O)C2CC23CCOC3)c1-c1ccc2c(c1)OCO2 (stereo not given) | -3% | 0.52
46 | C[C@@H]1Oc2ccc(NC(=O)c3cncc(Br)c3)cc2NC1=O | -12% | 2.57
47 | NC(=O)C[C@H](c1cccc(Cl)c1)c1cn(Cc2ccc(F)cc2)c2ccccc12 | -1% | 0.22
48 | O=C(Cn1nnn(-c2ccc(NS(=O)(=O)c3cccnc3)cc2)c1=O)N1CCOCC1 | -11% | 2.05
49 | CC(C)c1nnsc1CN1CCC[C@@](O)(CO)C1 | -6% | 1.16
50 | COc1ccc(CC(=O)N2CCN(c3cc(=O)n(C)c(=O)n3C)CC2)c(Cl)c1 | -12% | 1.89
51 | O=C(Nc1ccccc1F)N1CCOc2ccc(N3CCOCC3)cc2C1 | -6% | 1.11
52 | CC(C)n1ncc2c1[C@@H](NCc1c(Cl)cccc1N1CCOCC1)CCC2 | -12% | 0.98
53 | CCn1c(C)ccc(-c2noc(CCC(=O)Nc3ccccn3)n2)c1=O | 26% | -3.5
54 | C[C@H]1COCCN1C(=O)NC(c1cccnc1)C1CC1 (stereo not given in full) | -9% | 1.22
55 | COc1cc([C@H]2CC(=O)Nc3c2cnn3C)cc2c1OCCO2 | 33% | -3.68
56 | Cc1ccsc1CNC(=O)N[C@H]1CC(=O)N(C(C)(C)C)C1 | -2% | 0.22
57 | O=S(=O)(c1cc(Br)ccc1Br)N(CCO)CCO | -33% | 3.9
58 | C#CCNC(=O)CCNC(=O)N[C@@H](C)C1CCCCC1 | -2% | 0.21
59 | CC(C)c1ccc(CN2CCC3(CC2)NC(=O)c2c(Cl)cccc2N3)cc1 | 8% | -1.19
60 | CC(=O)N[C@H](C(=O)Nc1cc(C(F)(F)F)c[nH]c1=O)C(C)C | -3% | 0.59
61 | CN1CCCC1C1CCCN1C(=O)c1cn(C)c2ccccc12 (stereo not given) | -6% | 0.7
62 | CC1CN(c2ccc(F)cn2)CC(c2ccsc2)O1 (stereo not given) | -14% | 1.36
63 | CCN1CCCCC1C(=O)N[C@H]1C[C@@H]1CC(C)C (stereo not given in full) | -4% | 0.59
64 | CN(CN1C(=O)C(=O)c2ccccc21)CN1C(=O)C(=O)c2ccccc21 | 4% | -0.44
65 | O=C1CCc2cc([C@@H](O)CN3C(=O)c4ccccc4C3=O)ccc2N1 | -4% | 0.51
66 | Cc1cc(CNS(=O)(=O)c2cccc(C(=O)N[C@H]3CCOC3)c2)n(C)n1 | 10% | -1.41

Row | SMILES | % Inhibition | Z score
67 | COc1cc(OC)nc(Oc2cccc(Cl)c2C(=O)NS(=O)(=O)C2CCCC2)n1 | -45% | 5.26
68 | Cc1ccc(CN2CCN(Cc3ccncc3)[C@H]3CS(=O)(=O)C[C@H]32)o1 | -10% | 1.92
69 | CC1CCN(S(=O)(=O)N(C)CCN2CCCC2)CC1 | -2% | 0.38
70 | O[C@@H](CNCc1cccnc1)COc1ccc(F)cc1 | -9% | 0.96
71 | NC(=O)CN1CCC(Nc2nc3ccccc3n2CCO)CC1 | -7% | 1.08
72 | C=CCOc1ccc(Cl)c(C(=O)O)n1 | -2% | 0.22
73 | CCC(=O)N1CCc2cc(Br)c(S(=O)(=O)N3CCC[C@H](C(=O)NC4CCCCC4)C3)cc21 | 11% | -1.2
74 | COC[C@H]1CCN(C(=O)c2cc(C)nc3c(C)c(C)ccc23)C1 | 4% | -0.74
75 | Cn1nccc1CCC(=O)N1CCC(Oc2cccc(Cl)c2)CC1 | -9% | 1.12
76 | Cc1nnc(CN[C@@H](C)c2ccccc2Oc2ccccc2)o1 | -31% | 3.69
77 | COc1ccccc1CNC(=O)c1ccnc(OCC2CC2)c1 | -14% | 1.92
78 | COc1ccc(CN(C(=O)CC(C)(C)C)C(C)C)cc1OS(=O)(=O)C(C)C | 6% | -0.91
79 | CC(C)OCCCNC(=O)c1nnc(C(=O)Nc2ccccc2)s1 | -20% | 1.87
80 | CN1CCN(C(=O)NCc2ccc3c(c2)OCO3)CC1 | -3% | 0.41
81 | COc1ccc(C(=O)N2CCC[C@H](Oc3cncc(OC)n3)C2)c(OC)c1 | -5% | 0.82
82 | Cc1ccc(C(=O)Nc2ccc3c(c2)OCCCO3)cn1 | -7% | 0.77
83 | COC(=O)c1[nH]c(C)c(C(=O)N(C)OC)c1C | -9% | 1.32
84 | O=C(CNC(=O)c1cccs1)Nc1cccc(-n2cnnc2)c1 | -13% | 1.8
85 | O=C(CCCN1CCOC[C@@H](CO)C1)c1ccc(F)cc1 | -8% | 1.58
